For 57 compounds, Potency results are on record in PubChem BioAssay AID360 (National Center for Advancing Translational Sciences (NCATS), 2006).

Screen size: about 48,000 compounds; about 550 (1.1%) were called active. Inconclusive results (about 4%) are left out. Rule as the data show it: active = potency below about 15 µM; inconclusive = mostly about 16 µM to 33 µM; inactive = weaker than that. The list shows a part of the results.
Potency is read from the fitted curve at half-maximal effect.

The target in this assay is Lysosomal acid glucosylceramidase (Homo sapiens) (UniProt P04062). As to the kind of experiment: Glucocerebrosidase.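 Also: the screen sought inhibitors.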 The following applies: purified enzyme, resorufin glucoside fluorescence (screen aimed at inhibitors), 20 min. The method in brief: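 Wild-type enzyme at 0.2 nM final in 50mM citric acid/KH2PO4, 10mM sodium taurocholate, 0.01% tween-20, pH 5.9, with resorufin beta-D-glucopyranoside at 30 uM final. Compounds titrated, 20 min at RT, red fluorescence read; AC50 from titration.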
UniProt P04062, sequence (P04062 whole entry, looked up): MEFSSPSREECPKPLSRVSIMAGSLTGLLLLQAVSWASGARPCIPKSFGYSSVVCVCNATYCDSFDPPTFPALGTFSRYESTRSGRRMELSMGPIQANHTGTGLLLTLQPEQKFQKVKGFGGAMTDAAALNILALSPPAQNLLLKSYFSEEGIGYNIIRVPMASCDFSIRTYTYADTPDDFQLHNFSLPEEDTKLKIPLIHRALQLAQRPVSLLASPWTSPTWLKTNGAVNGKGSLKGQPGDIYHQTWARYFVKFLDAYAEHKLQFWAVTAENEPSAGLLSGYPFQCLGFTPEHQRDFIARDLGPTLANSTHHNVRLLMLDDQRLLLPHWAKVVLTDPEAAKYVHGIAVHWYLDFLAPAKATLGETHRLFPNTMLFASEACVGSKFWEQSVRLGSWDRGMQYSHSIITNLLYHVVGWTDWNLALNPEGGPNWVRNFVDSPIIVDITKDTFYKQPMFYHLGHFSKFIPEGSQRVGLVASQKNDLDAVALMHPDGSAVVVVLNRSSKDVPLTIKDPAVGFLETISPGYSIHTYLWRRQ
In the case of `CCOC(=O)c1ccc(NS(=O)(=O)c2cc(C)ccc2OC)cc1`, the Potency is inactive: > 76.9 µM.

On to `Cc1ccc(S(=O)(=O)c2nc(-c3ccco3)oc2SCC(=O)NCC2CCCO2)cc1` (configuration not stated), for which the Potency is inactive: > 76.9 µM.

As for `CCCCCCC1/C(=N/O)CCC1C(=O)OC` (configuration not stated), the Potency is inactive: > 76.9 µM.

For the compound `O=C1CC(c2ccc(S(=O)(=O)N3CCCCC3)cc2)CN1` (configuration not stated), the Potency was inactive: > 76.9 µM.

As for `N#C/C(C(=O)Oc1ccccc1)=C1\C=CC=CN1`, the Potency is inactive: > 76.9 µM.

For `COC(=O)c1ccc(-c2cc(C(=O)O)c3cc4c(cc3n2)OCCO4)cc1`, the Potency is inactive: > 76.9 µM.

Regarding `CC1CCCCC1NC(=O)C1CCN(S(=O)(=O)N2CCOCC2)CC1` (configuration not stated), the Potency is inactive: > 76.9 µM.

For `COc1ccc(C2C(C#N)=C(N)OC3=C2C(=O)CCC3)c(OC)c1OC` (configuration not stated), the Potency was inactive: > 76.9 µM.

In the case of `CCC(C)NC(=O)C1CCN(S(=O)(=O)N2CCCC2)CC1` (configuration not stated), the Potency was inactive: > 76.9 µM.

Consider `Cn1c(SCC(=O)N2CCCCCC2)nc2c([nH]c3ccccc32)c1=O`, for which the Potency was inactive: > 76.9 µM.

For `COc1ccc(C(C)=O)c2c(O)cccc12`, the Potency is inactive: > 76.9 µM.

Consider `CCn1c(SCC(=O)NCC(=O)Nc2ccc(F)cc2)nnc1-c1cccs1`, for which the Potency was inactive: > 76.9 µM.

`O=C(c1ccco1)N1CCN(CCCCN2C(=O)c3ccccc3C2=O)CC1`: the Potency was inactive: > 76.9 µM.

As for `O=C(O)CCC(=O)N1CCC(C(=O)c2cccc(Cl)c2)CC1`, the Potency is inactive: > 76.9 µM.

With `COc1ccccc1NC(=O)CSC1CC(=O)N(c2ccc3c(c2)OCO3)C1=O` (configuration not stated), the Potency was inactive: > 76.9 µM.

Consider `COc1ccc(-c2nnn(Cc3nc(N)nc(N4CCCCC4)n3)n2)cc1`, for which the Potency is inactive: > 76.9 µM.

On to `O=C1CSc2ccccc2N1Cc1ccc(F)cc1`, for which the Potency is inactive: > 76.9 µM.

For the compound `O=C(NCc1ccco1)c1cccnc1-c1nc2ccccc2s1`, the Potency was inactive: > 76.9 µM.

As to `O=C(CCCOc1ccccc1)N1CCc2ccccc2C1`, the Potency is inactive: > 76.9 µM.

For `CCOC(=O)N1CCN(C2=Nc3cccc4cccc2c34)CC1`, the Potency was inactive: > 76.9 µM.

On to `Cc1ncoc1C(=O)Nc1ccc2c(c1)OCCO2`, for which the Potency was inactive: > 76.9 µM.

For the compound `CCOC(=O)Cn1nnnc1CN(Cc1ccc(OC)cc1)Cc1cc2cc(CC)ccc2[nH]c1=O`, the Potency is inactive: > 76.9 µM.

Consider `CCCc1cc(=O)[nH]c(SCC(=O)N2CCC(C(=O)OCC)CC2)n1`, for which the Potency is inactive: > 76.9 µM.

As for `CCOC(=O)N1CCN(c2nc3ccccc3nc2C(C#N)C(=O)NCCc2ccccc2)CC1` (configuration not stated), the Potency is inactive: > 76.9 µM.

On to `N=c1n(CCN2CCCCC2)c2ccccc2n1CC(O)c1cccc(Br)c1` (configuration not stated), for which the Potency is inactive: > 76.9 µM.

Regarding `COC(=O)c1ccc(COc2cc(O)c3c(c2)OC(C)(C)CC3=O)cc1`, the Potency is inactive: > 76.9 µM.

On to `CCN(CC)C(=O)C(C)OC(=O)COc1ccc(Cl)cc1C` (configuration not stated), for which the Potency was inactive: > 76.9 µM.

Regarding `Nc1cc(S(=O)(=O)C(F)(F)F)ccc1C(=O)O`, the Potency is inactive: > 76.9 µM.

On to `CC1(C)CC(=O)C2=C(C1)Oc1ncn(Cc3ccco3)c(=N)c1C2c1ccccc1` (configuration not stated), for which the Potency is inactive: > 76.9 µM.

`CCOC(=O)N1CCC(NC(=O)C2CCCN(S(=O)(=O)c3cccc4nsnc34)C2)CC1` (configuration not stated): the Potency is inactive: > 76.9 µM.

For the compound `CC(CCc1ccccc1)NC(=O)CN1CCN(Cc2ccccc2)C1=O` (configuration not stated), the Potency was inactive: > 76.9 µM.

In the case of `COc1ccc(CC(=O)N2CCN(C(=O)Cc3ccc(OC)cc3)CC2)cc1`, the Potency is inactive: > 76.9 µM.

As for `NC(=O)CN(c1ccc(Cl)cc1)S(=O)(=O)c1ccccc1`, the Potency is inactive: > 76.9 µM.

On to `Cc1cc(NC(=O)NC(=O)c2cccc(OC(F)(F)C(F)F)c2)n[nH]1`, for which the Potency was inactive: > 76.9 µM.

In the case of `O=C1c2ccccc2NC(c2ccc3c(c2)OCO3)N1O` (configuration not stated), the Potency was inactive: > 76.9 µM.

For the compound `CS(=O)(=O)N(CC(=O)Nc1ccc2c(c1)OCO2)Cc1ccc(Cl)cc1`, the Potency is inactive: > 76.9 µM.

As for `Cc1ccc(S(=O)(=O)N2CCN(C(=O)CCC(=O)NC3CCCc4ccccc43)CC2)cc1` (configuration not stated), the Potency was inactive: > 76.9 µM.

As to `C=CCNc1nc2c3ccccc3n(C(C)=O)c2s1`, the Potency is inactive: > 76.9 µM.

As to `CC(C)N1CC(O)=C(c2ccccc2)C1=N`, the Potency was inactive: > 76.9 µM.

On to `Cc1ccc(S(=O)(=O)Cn2nnnc2C(C)N2CCN(C(=O)c3ccco3)CC2)cc1` (configuration not stated), for which the Potency was inactive: > 76.9 µM.

In the case of `Nc1ncnc2c1ncn2C1CCC(CO)C(O)C1` (configuration not stated), the Potency was inactive: > 76.9 µM.

For the compound `CC1CCc2c(C(=O)Oc3cccc(-n4cnnn4)c3)csc2C1` (configuration not stated), the Potency was inactive: > 76.9 µM.

For the compound `CCOC(=O)Cn1cnc2sc3c(c2c1=O)CCC3`, the Potency is inactive: > 76.9 µM.

Take `COc1ccc(C)cc1-n1c(SCC(=O)Nc2cc(C)on2)nc2sc(C)c(C)c2c1=O`: the Potency was inactive: > 76.9 µM.

In the case of `O=C1NC(c2ccccc2Cl)Nc2ccccc21` (configuration not stated), the Potency is inactive: > 76.9 µM.

Take `COc1ccc(C(C(=O)NC2CCCC2)N(CCN(C)C)C(=O)c2snc(C(N)=O)c2N)cc1` (configuration not stated): the Potency was inactive: > 76.9 µM.

Consider `CC(=O)c1cccc(NC(=O)CCNS(=O)(=O)c2cccc3nsnc23)c1`, for which the Potency was inactive: > 76.9 µM.

On to `CC1Cc2nc(SCC(=O)N3CCc4ccccc43)n(C)c(=O)c2S1` (configuration not stated), for which the Potency is inactive: > 76.9 µM.

On to `CCN(CCCNC(=O)CN1C(=O)COc2ccccc21)c1ccccc1`, for which the Potency is inactive: > 76.9 µM.

Consider `CCc1c(C)nc2cc(-c3ccc(OC)c(OC)c3)nn2c1N1CCCC1`, for which the Potency was inactive: > 76.9 µM.

For the compound `CCOC(=O)c1ccccc1NC(=O)CSc1nnc(COc2ccccc2)n1CC`, the Potency is inactive: > 76.9 µM.

Turning to `O=C(NCc1ccco1)C1CCCN1C(=O)NCc1ccccc1` (configuration not stated), the Potency is inactive: > 76.9 µM.

In the case of `O=C1NCCCc2c1oc1cc(Br)c(O)c(Br)c21`, the Potency is inactive: > 76.9 µM.

With `Cc1nc2cc(NC(=O)N(C)c3ccc4ccccc4c3)ccc2o1`, the Potency was inactive: > 76.9 µM.

Regarding `CCOC(=O)Cn1c(=O)n(C2CCCC2)c(=O)c2ccccc21`, the Potency is inactive: > 76.9 µM.

For `Cc1ccc(C)c(N2CCN(S(=O)(=O)c3ccc4c(c3)oc(=O)n4C)CC2)c1`, the Potency was inactive: > 76.9 µM.

Take `c1cncc(C(c2nnnn2C2CCCC2)N2CCN(Cc3ccc4c(c3)OCO4)CC2)c1` (configuration not stated): the Potency is inactive: > 76.9 µM.
